Screen size: about 420,000 compounds; about 64,000 (15%) were called active. Inconclusive means that the source gave no clear call. Such entries were picked first, then a sample of the others. Calls come from the whole dose curve; as a rule, active = well fitted inhibition curve with a large enough effect; inconclusive = small, poorly fitted or top-dose-only effect; inactive = flat fitted curve, though single readings scatter. No potency is given beside an inconclusive call; the fits are too rough.
Experiment: qHTS for Inhibitors of human tyrosyl-DNA phosphodiesterase 1 (TDP1): qHTS in cells in absence of CPT; note: nearly all actives have a fitted effect of over 55% in size
Conditions: DT40 Tdp1-/- hTDP1 cells, no CPT, ATP luminescence, 48 h; series mostly up to 46.2 µM
In short: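 DT40 Tdp1-/-;hTDP1 cells, no CPT (DMSO vehicle only), 400 cells/well; compounds pin-transferred; ≥48 hr, 37 °C; CellTiter-Glo 30 min RT dark, luminescence read.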
In the case of `Cc1c(NC(=O)C(C)OC(=O)CCC2CCCC2)c(=O)n(-c2ccccc2)n1C` (configuration not stated), the Potency is reported as “inactive”. In the case of `CCCCN(CC)CCOc1cccc2ccccc12`, the Potency is reported as inconclusive [inhibitor, single point]. With `CCc1ccc(N/C(SCc2cccc(F)c2)=C(/C#N)C(=O)NCc2ccco2)cc1` the Potency was inconclusive [inhibitor, single point]. With `CCSc1nc2cc(C(=O)OC)ccc2c(=O)n1CC` the Potency was “inactive”. In the case of `Cc1nc(-n2nc(C)c(CCC(C)C)c2C)sc1C(=O)Nc1cccc(Cl)c1`, the Potency is reported as inconclusive [inhibitor, single point]. In the case of `COc1ccccc1CNc1nc(S(=O)(=O)c2ccccc2)c(Cl)s1`, the Potency is reported as inconclusive [inhibitor, single point]. With `O[C@H](CCCN1CCN(c2ncc(F)cn2)CC1)c1ccc(F)cc1` the Potency was “inactive”. In the case of `CC(Oc1ccc(F)cc1)C(=O)Nc1cc(S(=O)(=O)N2CCCCC2)ccc1N1CCOCC1` (configuration not stated), the Potency is reported as active: 16.4 µM. In the case of `CC1CCc2cc(F)ccc2N1C(=O)CCC(=O)O` (configuration not stated), the Potency is reported as “inactive”. In the case of `CC1(C)Cc2cccc(OCC(=O)Nc3cccnc3)c2O1`, the Potency is reported as inconclusive [inhibitor, single point]. In the case of `CC(C)C[C@H]1COc2cccc(N3CCSCC3)c2S(=O)(=O)N1`, the Potency is reported as inconclusive [inhibitor, partial curve]. In the case of `Cc1ccc(/C([O-])=C(/C(=S)NCc2ccccc2)[n+]2cccc(CO)c2)cc1[N+](=O)[O-]`, the Potency is reported as “inactive”. In the case of `Clc1ccc(NCc2nc3ccccc3n2CCOc2ccccc2)cc1`, the Potency is reported as active: 20.6 µM. In the case of `O=[N+]([O-])c1ccc(N/N=C/c2ccccc2)c(F)c1`, the Potency is reported as inconclusive [inhibitor, partial curve]. In the case of `CSc1ncc(C(=O)Nc2ccccc2)cn1`, the Potency is reported as “inactive”. For `c1cnc2c(C3NCCc4c3[nH]c3ccccc43)cccc2c1` (configuration not stated), the Potency was inconclusive [inhibitor, partial curve, poor fit]. For `CCn1nc(C(=O)NNS(=O)(=O)c2cc(/C=C/C(=O)O)cc(OC)c2OC)c2ccccc2c1=O`, the Potency was “inactive”. In the case of `O=c1cc(Cl)[nH]c(=O)n1CCNc1ncc(C(F)(F)F)cc1Cl`, the Potency is reported as inconclusive [inhibitor, single point]. In the case of `CCOc1ccc(C(=O)NC(C)CCc2ccccc2)cc1` (configuration not stated), the Potency is reported as inconclusive [inhibitor, single point]. For `Cc1c(Cl)cccc1NC(=S)NCc1ccc(F)cc1`, the Potency was inconclusive [inhibitor, single point]. In the case of `CCOC(=O)c1sc(=S)n(C)c1NC(=O)c1ccc(C(C)(C)C)cc1`, the Potency is reported as inconclusive [inhibitor, single point]. For `COc1cccc(Cn2c(=O)c3[nH]cnc3n(-c3ccccc3C)c2=O)c1`, the Potency was inconclusive [inhibitor, single point]. For `CSCc1c(C(=O)NC2CCCc3ccccc32)oc2ccccc12` (configuration not stated), the Potency was inconclusive [inhibitor, partial curve]. For `Cc1nc2nc(C(F)(F)F)[nH]c2nc1C`, the Potency was “inactive”. In the case of `CCc1cc2c(-c3ccccc3)cc(=O)oc2cc1OC(C)C(=O)NCC1CCC(C(=O)O)CC1` (configuration not stated), the Potency is reported as inconclusive [inhibitor, single point]. In the case of `COc1ccc2nc(C(c3ccc(C)cc3)n3c(-c4ccccc4Br)nc4ccccc43)[nH]c2c1` (configuration not stated), the Potency is reported as inconclusive [inhibitor, single point]. With `O=C(CCS(=O)(=O)c1cc(Br)cc2c1N(C(=O)C1CC1)CC2)NCc1ccco1` the Potency was inconclusive [inhibitor, partial curve]. With `COc1cc(CNCCSc2nnnn2C)ccc1OCc1ccc(Cl)cc1Cl` the Potency was active: 23.1 µM. For `CN1CCN(c2ncc3nc(-c4ccccc4)c(=O)n(Cc4ccc(F)cc4)c3n2)CC1`, the Potency was “inactive”. For `O=C1Nc2ccc(Br)cc2/C1=C/C1CC=CCC1` (configuration not stated), the Potency was inconclusive [inhibitor, single point]. For `Cc1cc(C)cc(OCC(=O)Nc2ccc(N3CCOCC3)cc2N2CCOCC2)c1`, the Potency was inconclusive [inhibitor, single point]. In the case of `CC(=O)NCCCCCCNC(C)=O`, the Potency is reported as “inactive”. For `CC(C)(C)OC(=O)N1CCC(CC2CC(c3ccccc3)=NO2)(C(=O)NCc2ccccc2)CC1` (configuration not stated), the Potency was inconclusive [inhibitor, single point]. With `CCn1c(CNC(=O)c2ccccc2)nnc1SCC(=O)N1CCN(c2ccccc2)CC1` the Potency was “inactive”. With `CC(=O)N1CCc2cc(S(=O)(=O)NC3CCCc4ccccc43)ccc21` (configuration not stated) the Potency was active: 14.1 µM. With `CN(Cc1ccccc1)c1ccc(C(CC(N)=O)NC(=O)Cc2cccc3ccccc23)cc1[N+](=O)[O-]` (configuration not stated) the Potency was “inactive”. For `Cn1c2c(c(=O)n(C)c1=O)C1c3ccccc3OCC1C(C)(C)O2` (configuration not stated), the Potency was “inactive”. For `O=C(NCC(=O)N1CCN(S(=O)(=O)/C=C/c2ccccc2)CC1)c1ccc(Cl)cc1`, the Potency was “inactive”. For `CC(C)(C)NC(=O)CSc1ncnc2c1cnn2-c1ccccc1`, the Potency was inconclusive [inhibitor, single point]. With `CCCn1c(=O)n(C)c(=O)c2c(SCC(=O)NCC(c3ccccc3)N(C)C)nc(CC(C)C)nc21` (configuration not stated) the Potency was active: 18.4 µM. In the case of `CCCCNC(=O)C1(C)CCCCN1Cc1ccc(OCc2ccccc2)cc1` (configuration not stated), the Potency is reported as active: 20.6 µM. In the case of `CCN(C(=O)CSc1nc2ccccc2nc1Cc1ccc(F)cc1)c1cccc(C)c1`, the Potency is reported as inconclusive [inhibitor, single point]. With `COc1cc(C#N)c(NC(=O)CN2CCC(C(N)=O)CC2)cc1OC` the Potency was “inactive”. For `CN(Cc1nc(-c2ccc(Cl)cc2)no1)C(=O)CCN1C(=O)[C@H]2CC=CC[C@H]2C1=O`, the Potency was “inactive”. With `CN(CCc1ccccc1)C(=O)c1cccc(NC(=O)Cc2cccc(NC(=O)C3CCCN(C(=O)C4CC4)C3)c2)c1` (configuration not stated) the Potency was inconclusive [inhibitor, single point]. For `CCOC(=O)C1C(=O)OC(C)(C)C1C(CC)C(=O)c1c(C)cc(C)cc1C` (configuration not stated), the Potency was active: 9.2 µM. With `COC(=O)c1ccc(NC(=O)c2ccc3nsnc3c2)cc1` the Potency was inconclusive [inhibitor, partial curve].

— PubChem BioAssay AID686978 (National Center for Advancing Translational Sciences (NCATS), 2013)
Potency is the fitted concentration of half-maximal effect; tags give direction and shape of the fitted curve.
